Measurements published in the supplement of paper PMC6135742.
Values joined by “and” are separate entries in the source; they are usually repeats but may differ in a detail not shown here. Equal values may be shown once. Where a name gives a salt, the structure may show the parent alone. ± gives the standard deviation of the averaged measurements. The full ranking holds about 2,600 compounds; the median of “MBP+ mature oligodendrocyte number relative to DMSO vehicle control” is about -0.34, and the highest 2% start at about 13. This is one part of the list.

System: jimpy (Plp1 jimpy) mouse iPSC-derived oligodendrocyte progenitor cells
Assay: MBP+ mature oligodendrocyte number relative to DMSO vehicle control (SDs above negative control mean); higher = more surviving jimpy oligodendrocytes (rescue)
Details: 10 µM; 3 days
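Note: 10 µM single dose with 3-day oligodendrocyte differentiation.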

Row | SMILES | MBP+ mature oligodendrocyte number
1 | CC1(C)O[C@@H]2C[C@H]3[C@@H]4CCC5=CC(=O)CC[C@]5(C)[C@@]4(F)[C@@H](O)C[C@]3(C)[C@]2(C(=O)CCl)O1 [Halcinonide] | 8.94
2 | CCN(CC)C(=O)/C(C#N)=C/c1cc(O)c(O)c([N+](=O)[O-])c1 [Entacapone] | 3.04
3 | C[C@@H]1O[C@@H](OC[C@H]2O[C@@H](Oc3c(-c4ccc(OCCO)c(OCCO)c4)oc4cc(OCCO)cc(O)c4c3=O)[C@H](O)[C@@H](O)[C@@H]2O)[C@H](O)[C@H](O)[C@H]1O [Troxerutin] | 0.787
4 | CCCCCCCC/C=C\CCCCCCCC(=O)NCCO [N-Oleoylethanolamine] | -0.715
5 | C[C@@H](O)[C@H]1C(=O)N2C(C(=O)O)=C(S[C@@H]3CN[C@H](C(=O)N(C)C)C3)[C@H](C)[C@H]12 [Meropenem] | 1.94
6 | CC(=O)O[C@H]1C[C@@H]2CC[C@@H]3[C@H](CC[C@@]4(C)[C@H]3C[C@H]([N+]3(C)CCCCC3)[C@@H]4OC(C)=O)[C@@]2(C)C[C@@H]1N1CCCCC1 [Vecuronium Bromide] | 2.47
7 | NC(CCCP(=O)(O)O)C(=O)O (stereo not drawn) [D(-)-2-Amino-5-phosphonopentanoic acid] | -1.43
8 | C#C[C@]1(O)CC[C@H]2[C@@H]3CCc4cc(O)ccc4[C@H]3CC[C@@]21C [Ethinyl Estradiol] | 0.433
9 | O=C(O)c1ccc(N2C(=O)/C(=C\c3ccc(-c4ccc([N+](=O)[O-])cc4)o3)C=C2c2ccccc2)cc1 | 2.49
10 | O=S(=O)(c1ccccc1)N(CC(F)(F)F)c1ccc(C(O)(C(F)(F)F)C(F)(F)F)cc1 | 4.38
11 | CCOC(=O)C1=C(C)NC(C)=C(C(=O)OCC)C1c1ccccc1/C=C/C(=O)OC(C)(C)C [Lacidipine] | -4.16
12 | Cn1c(=O)n(-c2ccc(C(C)(C)C#N)cc2)c2c3cc(-c4cnc5ccccc5c4)ccc3ncc21 [BEZ235 (NVP-BEZ235, Dactolisib)] | < -6.7
13 | O=C(O)C(Cc1c[nH]c2ccccc12)N1C(=O)c2ccccc2C1=O (configuration not stated) | 1.77
14 | CCOc1cc(CC(=O)N[C@@H](CC(C)C)c2ccccc2N2CCCCC2)ccc1C(=O)O [Repaglinide] | 1.77
15 | CC1(C)CCC[C@]2(C)[C@H]3CC(=O)O[C@]3(C)CC[C@@H]12 [Sclareolide] | 5.37
16 | COc1c(N2C[C@@H]3CCCN[C@@H]3C2)c(F)cc2c(=O)c(C(=O)O)cn(C3CC3)c12 [Moxifloxacin HCl] | -0.676
17 | COc1ccc(C(=O)CC(=O)c2ccc(C(C)(C)C)cc2)cc1 [Avobenzone] | 0.0731
18 | Cc1cc(NC2CCCCC2)nc(-n2nc(C)cc2C)n1 | -3.58
19 | NCCSSCCN [Cystamine dihydrochloride] | -0.668
20 | Nc1nc2c(ncn2COCCO)c(=O)[nH]1 [Acyclovir] | -1.02
21 | Nc1nc2c(ncn2COCCO)c(=O)[nH]1 [Aciclovir] | -1.19
22 | CCCCCN(CCCCC)C(=O)C(CCC(=O)O)NC(=O)c1ccc(Cl)c(Cl)c1 (configuration not stated) [Lorglumide sodium] | 0.382
23 | CS(=O)(=O)N1CCN(Cc2cc3nc(-c4cccc5[nH]ncc45)nc(N4CCOCC4)c3s2)CC1 | < -6.7
24 | COc1ccc2[nH]c([S@@+]([O-])Cc3ncc(C)c(OC)c3C)nc2c1 [Esomeprazole magnesium dihydrate] | 2.12

Row | SMILES | MBP+ mature oligodendrocyte number
25 | COc1ccc2[nH]c([S@@+]([O-])Cc3ncc(C)c(OC)c3C)nc2c1 [Esomeprazole Sodium] | 2.47
26 | c1cc(-c2cnn3cc(-c4ccc(N5CCNCC5)cc4)cnc23)c2cccnc2c1 | < -6.35
27 | COC(=O)c1c(C)[nH]c(C)c1C(=O)c1ccccc1Cc1ccccc1 | 0.0316
28 | COc1cc(C(C)=O)ccc1OCCCN1CCC(c2noc3cc(F)ccc23)CC1 [Iloperidone] | -1.03
29 | CCOC(=O)[C@H](CCc1ccccc1)N[C@H]1CCCN2CCC[C@@H](C(=O)O)N2C1=O [Cilazapril Monohydrate] | -0.107
30 | CCCC1O[C@@H]2C[C@H]3[C@@H]4CCC5=CC(=O)C=C[C@]5(C)[C@H]4[C@@H](O)C[C@]3(C)[C@]2(C(=O)CO)O1 (some centres not stated) [Budesonide] | 13.4 ± 10
31 | CN1[C@@H]2CC[C@H]1CC(OC(=O)c1c[nH]c3ccccc13)C2 (some centres not stated) [3-Tropanyl-indole-3-carboxylate hydrochloride] | -1.25
32 | CCCCCCCCCCCCCCCCCCOCC(COP(=O)([O-])OCC[N+](C)(C)C)OC (configuration not stated) | -1.12
33 | CC1=C(C(=O)Nc2cc3cn[nH]c3cc2F)C(c2ccc(C(F)(F)F)cc2)CC(=O)N1 (configuration not stated) | 5.35
34 | CNC(=O)c1ccccc1Nc1nc(Nc2ccc(N3CCOCC3)cc2OC)ncc1Cl | < -6.01
35 | NCC(O)(CS(=O)(=O)O)c1ccc(Cl)cc1 (configuration not stated) [2-Hydroxysaclofen] | -0.904
36 | CC[C@H](NC(=O)c1c(C)c(-c2ccccc2)nc2ccccc12)c1ccccc1 | -1.61
37 | CCOC(=O)c1ncn2c1CN(C)C(=O)c1cc(F)ccc1-2 [Flumazenil] | 0.227 ± 0.17
38 | O=NN(CCCl)C(=O)NCCCl [Carmustine] | -1.1
39 | Cc1cc(C)c2c(c1)[C@@H](N(Cc1cc(C(F)(F)F)cc(C(F)(F)F)c1)c1nnn(C)n1)CCCN2C[C@H]1CC[C@H](C(=O)O)CC1 | 7.57
40 | CC(C(=O)O)c1cccc(C(=O)c2ccccc2)c1 (configuration not stated) [Ketoprofen] | 0.391 ± 1.8
41 | Nc1nc(N)c2nc(CNc3ccc(C(=O)N[C@@H](CCC(=O)O)C(=O)O)cc3)cnc2n1 [Aminopterin] | -0.433
42 | CCCCN(Cc1ccc(C(=O)NO)cc1)C(=O)Nc1ccccc1 [Nexturastat A] | -4.64
43 | COC(=O)N[C@H](C(=O)N1CCC[C@H]1c1ncc(-c2ccc(-c3ccc(-c4cnc([C@@H]5CCCN5C(=O)[C@@H](NC(=O)OC)C(C)C)[nH]4)cc3)cc2)[nH]1)C(C)C | -4.43
44 | CC(C)(C)C(=O)C(Oc1ccc(Cl)cc1)n1ccnc1 (configuration not stated) [Climbazole] | 38.6
45 | CC1=C(CC(=O)O)c2cc(F)ccc2/C1=C\c1ccc(S(C)(=O)=O)cc1 [Sulindac sulfone] | 8.47
46 | CC(C)N(CCCNC(=O)Nc1ccc(C(C)(C)C)cc1)C[C@H]1O[C@@H](n2cc(Br)c3c(N)ncnc32)[C@H](O)[C@@H]1O | -6.27
47 | COc1ccc(-c2csc(NC(=O)[C@H]3CCCCN3S(=O)(=O)c3ccc(C)cc3)n2)cc1 | 7.77
48 | NC(N)=NC(=O)c1nc(Cl)c(N2CCCCCC2)nc1N [5-(N,N-hexamethylene)amiloride] | -3.3

Row | SMILES | MBP+ mature oligodendrocyte number
49 | O=c1cc2c(=O)oc3cc(O)c(O)oc3c2c(O)c1O [Galloflavin potassium] | 0.11
50 | NC(=O)N1C(=O)/C(=C(\O)c2cccs2)c2cc(Cl)ccc21 [Tenidap] | 0.00298
51 | CC1(C)S[C@@H]2[C@H](NC(=O)C(C(=O)O)c3ccccc3)C(=O)N2[C@H]1C(=O)O (some centres not stated) [Carbenicillin disodium] | 1.53
52 | O=C1CN(/N=C/c2ccc(-c3ccc([N+](=O)[O-])cc3)o2)C(=O)N1 [Dantrolene sodium] | -0.23
53 | COc1cc(O)c2c(c1)C(=O)c1cc(C)cc(O)c1C2=O [Rheochrysidin] | 1.29
54 | CC(C)[C@H]1c2ccc(F)cc2CC[C@@]1(CCN(C)CCCc1nc2ccccc2[nH]1)OC(=O)C1CC1 | < -3.97
55 | CCOC(=O)n1ccn(C)c1=S [Carbimazole] | -0.1
56 | COc1cc(N2CCC(N)CC2)ccc1Nc1ncc(Cl)c(-c2c[nH]c3ccccc23)n1 | < -6.35
57 | CC1(C)S[C@@H]2[C@H](NC(=O)[C@H](C(=O)O)c3ccsc3)C(=O)N2[C@H]1C(=O)O [Ticarcillin sodium] | 2.09
58 | Cc1cc(NS(=O)(=O)c2ccc(N)cc2)no1 [Sulfamethoxazole] | -0.737
59 | O=C(c1ccc2c(c1)OCCO2)N1CCCCC1 | -1.28
60 | COC(=O)C1=C(C)NC(C)=C([N+](=O)[O-])C1c1ccccc1C(F)(F)F (racemic) | -0.354
61 | CC[C@H]1OC(=O)C[C@@H](O)[C@H](C)[C@@H](O[C@@H]2O[C@H](C)[C@@H](O[C@H]3C[C@@](C)(O)[C@@H](O)[C@H](C)O3)[C@H](N(C)C)[C@H]2O)[C@@H](CC=O)C[C@@H](C)C(=O)/C=C/C(C)=C/[C@@H]1CO[C@@H]1O[C@H](C)[C@@H](O)[C@@H](OC)[C@H]1OC [Tylosin tartrate] | -2.2
62 | O=C(/C=C/c1ccc(O)c(O)c1)c1ccc(O)cc1O [Butein] | -4.58
63 | CCc1ccc2c(-c3cccc(Cl)c3)nc(=O)n(CC)c2n1 | 0.235
64 | O=C(CCCCCCC(=O)Nc1ccccc1)NO [Vorinostat (SAHA, MK0683)] | < -6.7
65 | CCNC(=O)CCC/C=C\C[C@@H]1[C@@H](/C=C/[C@@H](O)CCc2ccccc2)[C@H](O)C[C@@H]1O [Bimatoprost] | 2.55
66 | COC(=O)C1=C(C)NC(C)=C(C(=O)OC2CCCN(Cc3ccccc3)C2)C1c1cccc([N+](=O)[O-])c1 (configuration not stated) [Benidipine hydrochloride] | 1.03
67 | COC(=O)C1=C(C)NC(C)=C(C(=O)OC2CCCN(Cc3ccccc3)C2)C1c1cccc([N+](=O)[O-])c1 (configuration not stated) [Benidipine HCl] | 5.65
68 | Cc1ccc(NC(=O)c2cccc(N(C)C)c2)cc1NC(=O)c1ccc(O)cc1 | 14.6
69 | O=C1NCCc2[nH]c(-c3ccncc3)cc21 | -5.77 and < -3.34
70 | C[C@]12C[C@H](O)[C@H]3[C@@H](CCC4=CC(=O)CC[C@@]43C)[C@@H]1CC[C@@H]2C(=O)CO [Corticosterone] | 1.49
71 | COc1ccc(S(=O)(=O)Nc2cccnc2Nc2ccc(O)cc2)cc1 | -6.52
72 | COc1ccccc1N1CCN(CCN(C(=O)c2ccc(F)cc2)c2ccccn2)CC1 [p-MPPF dihydrochloride] | 6.54
